From the supplement of paper PMC4967469

Experiments:
Assay in all cases: Viability of human cancer cell lines after 72 h of drug (GDSC screen)
Shikonin = compound: CC(C)=CC[C@@H](O)C1=CC(=O)c2c(O)ccc(O)c2C1=O [Shikonin]; details: top dose 16 µM; top dose inferred
Protocol: (§1)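 Human cancer cell lines in 384-well plates, medium with 10% serum, drug for 72 h over a 256-fold dose range (nine 2-fold or five 4-fold steps up to the top dose). Adherent lines were fixed and stained with the nucleic acid dye Syto60, suspension lines read with resazurin; signal relative to control wells, capped at 0 and 100%. One two-parameter sigmoid per drug and line, fitted in a mixed model over all curves with the slope shared within a line.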

CGP-082996 (CINK4) = compound: CCNc1cc(NC2CCC(O)CC2)nc(Nc2ccc3c(ccn3Cc3ccccc3)c2)n1 [CGP-082996 (CINK4)]; details: top dose 5.12 µM; top dose inferred
Protocol: as §1

A-770041 = compound: COc1cc(-c2nn([C@H]3CC[C@H](N4CCN(C(C)=O)CC4)CC3)c3ncnc(N)c23)ccc1NC(=O)c1cc2ccccc2n1C [A-770041]; details: top dose 5.12 µM; top dose inferred
Protocol: as §1

XMD8-85 = compound: COc1cc(N2CCN(C)CC2)ccc1Nc1ncc2c(n1)N(C)c1ccccc1C(=O)N2C [XMD8-85]; details: top dose 8 µM; top dose inferred
Protocol: as §1

BMS-536924 = compound: Cc1cc(N2CCOCC2)cc2[nH]c(-c3c(NC[C@@H](O)c4cccc(Cl)c4)cc[nH]c3=O)nc12 [BMS-536924]
Protocol: as §1

BIRB 0796 = compound: Cc1ccc(-n2nc(C(C)(C)C)cc2NC(=O)Nc2ccc(OCCN3CCOCC3)c3ccccc23)cc1 [BIRB 0796]; details: top dose 10 µM; top dose inferred
Protocol: as §1

SB-525334 = compound: Cc1cccc(-c2[nH]c(C(C)(C)C)nc2-c2ccc3nccnc3c2)n1 [SB-525334]; details: top dose 20 µM; top dose inferred
Protocol: as §1

VX-702 = compound: NC(=O)c1ccc(N(C(N)=O)c2c(F)cccc2F)nc1-c1ccc(F)cc1F [VX-702]; details: top dose 2 µM; top dose inferred
Protocol: as §1

Olaparib = compound: O=C(c1cc(Cc2n[nH]c(=O)c3ccccc23)ccc1F)N1CCN(C(=O)C2CC2)CC1 [Olaparib]
Protocol: as §1

Wee1 inhibitor 681640 = compound: O=C1NC(=O)c2c1c(-c1ccccc1Cl)cc1[nH]c3ccc(O)cc3c21 [Wee1 inhibitor 681640]; details: top dose 2 µM; top dose inferred
Protocol: as §1

[1] = top dose 4 µM, screen: GDSC drug entry 1091, top dose inferred
[2] = top dose 5.12 µM, screen: GDSC drug entry 62
[3] = top dose 5 µM, screen: GDSC drug entry 1017, top dose inferred
[4] = top dose 10 µM, screen: GDSC drug entry 1495

Cell Line	AUC (Shikonin)	IC50 (Shikonin) [µM]	AUC (CGP-082996 (CINK4))	IC50 (CGP-082996 (CINK4)) [µM]	AUC (A-770041)	IC50 (A-770041) [µM]	AUC (XMD8-85)	IC50 (XMD8-85) [µM]	AUC (BMS-536924; [1])	IC50 (BMS-536924; [1]) [µM]	AUC (BMS-536924; [2])	IC50 (BMS-536924; [2]) [µM]	AUC (BIRB 0796)	IC50 (BIRB 0796) [µM]	AUC (SB-525334)	IC50 (SB-525334) [µM]	AUC (VX-702)	IC50 (VX-702) [µM]	AUC (Olaparib; [3])	IC50 (Olaparib; [3]) [µM]	AUC (Olaparib; [4])	IC50 (Olaparib; [4]) [µM]	AUC (Wee1 inhibitor 681640)	IC50 (Wee1 inhibitor 681640) [µM]
NCI-H1838 (lung adenocarcinoma, adherent)	0.923	> 16	0.964	> 5.12	0.969	> 5.12	0.961	> 8	0.939	> 4	0.976	> 5.12	0.952	> 10	0.965	> 20	0.971	> 2	0.987	> 5	0.982	> 10	0.948	> 2
NCI-H1869 (lung squamous cell carcinoma, adherent)	0.575	1.65	0.928	> 5.12	0.9	> 5.12	0.959	> 8	0.963	> 4	0.925	> 5.12	0.984	> 10	0.966	> 20	0.985	> 2	0.962	> 5	0.951	> 10	0.797	1.08
NCI-H2081 (small cell lung carcinoma, suspension)	0.58	1.68	0.977	> 5.12	0.987	> 5.12	0.976	> 8	0.986	> 4	0.978	> 5.12	0.984	> 10	0.962	> 20	0.97	> 2	0.96	> 5	0.946	> 10	0.986	> 2
NCI-H2135 (non-small cell lung carcinoma, adherent)	0.531	1.21	0.991	> 5.12	0.989	> 5.12	0.971	> 8	0.99	> 4	0.894	> 5.12	0.978	> 10	0.924	> 20	0.989	> 2	0.99	> 5	0.99	> 10	0.973	> 2
NCI-SNU-1 (stomach, suspension)	0.593	1.81	0.965	> 5.12	0.95	> 5.12	0.876	> 8	0.978	> 4	0.917	> 5.12	0.985	> 10	0.929	> 20	0.986	> 2	0.972	> 5	0.966	> 10	0.984	> 2
NKM-1 (acute myeloid leukaemia, suspension)	0.209	0.134	0.939	> 5.12	0.984	> 5.12	0.877	> 8	0.875	> 4	0.845	3.87	0.984	> 10	0.966	> 20	0.89	> 2	0.853	4.08	0.836	6.89	0.957	> 2
OCI-AML2 (acute myeloid leukaemia, suspension)	0.268	0.269	0.913	4.02	0.927	4.56	0.846	3.77	0.918	3.29	0.732	1.19	0.995	> 10	0.971	> 20	0.995	> 2	0.956	> 5	0.854	4.96	0.995	> 2
OCI-M1 (acute myeloid leukaemia, suspension)	0.391	0.542	0.992	> 5.12	0.995	> 5.12	0.928	7.75	0.817	1.59	0.65	0.746	0.995	> 10	0.916	17.1	0.994	> 2	0.993	> 5	0.984	> 10	0.986	> 2
OMC-1 (cervix, adherent)	0.594	1.84	0.972	> 5.12	0.986	> 5.12	0.946	> 8	0.945	> 4	0.935	> 5.12	0.978	> 10	0.966	> 20	0.988	> 2	0.988	> 5	0.969	> 10	0.969	> 2
OPM-2 (myeloma, suspension)	0.314	0.338	0.969	> 5.12	0.974	> 5.12	0.805	3.17	0.893	3.22	0.578	0.502	0.994	> 10	0.972	> 20	0.994	> 2	0.994	> 5	0.973	> 10	0.993	> 2
P30-OHK (lymphoblastic leukaemia, suspension)	0.252	0.227	0.958	> 5.12	0.978	> 5.12	0.965	> 8	0.751	1.13	0.947	> 5.12	0.991	> 10	0.824	9.37	0.986	> 2	0.972	> 5	0.814	4.33	0.947	> 2

IC50 is the fitted dose that halves viability relative to control wells, and lower means more sensitive; fits outside the tested doses are given as limits. AUC is the area under the same curve over the 256-fold range up to the top dose, as a fraction; it is 1 without any effect and falls as sensitivity rises. An inferred top dose was calculated from the reported fits. For part of these data: Where an entry number is given, a second screen of the drug exists; the two often differ.
